Measured values from PubChem BioAssay AID463173 (ICCB-Longwood Screening Facility, Harvard Medical School, 2010).
Screen size: about 52,000 compounds; about 1,700 (3.3%) were called active. Rule as the data show it: active = survival mostly below about 52% (no sharp cut-off); inactive = mostly above about 56%. The list shows a part of the results.

test system: Wild type; assay: S. aureus survival, RN4220 and DeltatarO strains – OD600, teichoic acid synthesis inhibitors, primary screen (AID 463173); settings: S. aureus RN4220 wild type/DeltatarO growth, OD600, 18 h, active compounds read low, screened at 18.75 µg/mL (by protocol)

Compound	survival
CCOc1ccc(CCNC(=O)c2cc3c(-c4ccccc4F)nn(C)c3s2)cc1	inactive: 69%
Cc1ccc(S(=O)(=O)c2nc(-c3ccc(F)cc3)oc2SCC(=O)NC2CCCCC2)cc1	inactive: 139%
COc1ccc(-c2cc(-c3ccc(C)cc3)nc3c2COc2ccccc2-3)cc1	inactive: 68%
CCC(Cn1nnc2ccccc2c1=O)NC(=O)Nc1ccccc1OC (stereo not drawn)	inactive: 93%
COc1ccc(CCNC(=O)c2ccc3c(c2)CCN3S(C)(=O)=O)cc1OC	inactive: 103%
COc1ccc(Cn2cc(S(=O)(=O)c3ccc(C)cc3)c(=O)c3cc(F)ccc32)cc1	inactive: 77%
Cc1nc(-c2ccc(S(=O)(=O)Nc3cc(Cl)ccc3C)cc2)co1	inactive: 73%
COc1ccc2c(CNCCc3ccc(SC)cc3)c(C(=O)O)n(Cc3ccc(F)cc3)c2c1	inactive: 112%
CCCOc1ccc(Cc2c(O)nc(N)[nH]c2=O)cc1C	inactive: 114%
COc1ccc2c(c1)c(=O)c(C(=O)c1ccccc1)cn2CC(=O)Nc1ccc2c(c1)OCO2	inactive: 82%
COc1ccc(/C=C(\NC(=O)c2ccccc2)C(=O)N2CCN(C)CC2)cc1	inactive: 104%
O=c1c2ccccc2nc(/C=C/c2cccc3ccccc23)n1-c1ccc(F)cc1F	inactive: 125%
CCOc1ccc(NC(=O)c2oc3ccccc3c2NC(=O)COc2cccc(OC)c2)cc1	inactive: 85%
Cc1cccc(CN2C(=O)c3ccccc3Sc3ccc(C(=O)NCc4ccco4)cc32)c1	inactive: 75%
CCS(=O)(=O)c1ncc(Cl)c(C(=O)N2CCN(c3ccc(OC)cc3)CC2)n1	inactive: 87%
CCC(CC)C(=O)Nc1nnc(S(=O)(=O)N2CCCCCC2)s1	inactive: 96%
CCC(Sc1nc2c(sc3ccccc32)c(=O)n1CCc1ccc(OC)c(OC)c1)C(=O)N(CC)CC (stereo not drawn)	inactive: 67%
NS(=O)(=O)c1ccc(CCNC(=O)C2CCN(c3ncnc4c3nc3n4CCCCC3)CC2)cc1	inactive: 84%
Cc1ccc(CNC(=O)CCc2cn(C)c3ccccc23)cc1	inactive: 65%
CC1CCN(S(=O)(=O)N2CCC(C(=O)NCc3ccccc3Cl)CC2)CC1	inactive: 81%
COC(=O)c1ccc(Nc2ncnc3c2cnn3C)cc1	inactive: 81%
Cc1cn2c(=O)cc(COC(=O)c3ccc(NC(=O)c4ccc(F)cc4)cc3)nc2s1	inactive: 70%

Compound	survival
CCOC(=O)c1ccc(NC(=O)c2cnn3c(=O)c4c(n(CC)c23)CCN(Cc2ccc(OC)cc2)C4)cc1	inactive: 70%
CC(Sc1nccn1C)C(=O)Nc1ccccc1C#N (stereo not drawn)	inactive: 79%
CCN(CC)c1ccc(NC(=O)c2cc(C)nc3c2c(C)nn3-c2ccc(C)cc2)c(C)c1	inactive: 95%
COc1ccc(C2c3[nH]c4ccccc4c3CCN2C(=O)CCC2CCCC2)cc1 (stereo not drawn)	inactive: 80%
COc1ccc(CNC(=O)Cc2c(C)c3cc4c(C)coc4cc3oc2=O)cc1OC	inactive: 83%
CCN(CC)C(=O)c1sc2c(c1C)c(=O)n(-c1ccc(C)c(C)c1)c(=O)n2Cc1cc(=O)n2ccccc2n1	inactive: 91%
COc1ccc(-c2nc3scc(CCNS(=O)(=O)c4ccc(Oc5ccccc5)cc4)n3n2)cc1OC	inactive: 129%
Cc1ccsc1CCN1C(=O)N(c2ccccc2)C(=O)C1CC(=O)Nc1ccc(Cl)cc1 (stereo not drawn)	inactive: 80%
CC(=O)c1cccc(NC(=O)Nc2sc3nc4n(c(=O)c3c2C)CCC(C)CC4)c1 (stereo not drawn)	inactive: 85%
CCN(CC)C(=O)c1sc2c(c1C)c(=O)n(Cc1ccccc1)c(=O)n2Cc1ccccc1C	inactive: 63%
O=C(NN=c1c(=O)c2ccccc2c1=O)c1ccncc1	inactive: 104%
Cc1ccc2sc(N(Cc3cccnc3)C(=O)CCS(=O)(=O)c3ccccc3)nc2c1C	active: 1%
COc1ccc(N2CCN(C(=O)CSc3nc(-c4ccc(C(C)C)cc4)no3)CC2)cc1	inactive: 71%
O=C(CNC(=O)c1ccccc1)OCc1cc(=O)n2nc(C3CCCCC3)sc2n1	inactive: 73%
Clc1ccc(CN2CCN(c3ncnc4sc5c(c34)CCCC5)CC2)cc1Cl	inactive: 94%
COc1ccc(CNC(=O)Cc2c(C(=O)O)c(C)cn2C)cc1	inactive: 83%
O=C(NCc1ccc(F)cc1Cl)c1cc(=O)[nH]c2ccc(S(=O)(=O)N3CCCCC3)cc12	inactive: 124%
COc1ccc(-c2nc3scc(CCNS(=O)(=O)c4ccc5c(c4)OCCO5)n3n2)cc1OC	inactive: 68%
Cc1c(-c2ccccc2)c(=O)oc2ccc(OC(=O)N3CCOCC3)cc12	inactive: 78%
CCOc1ccc(C(=O)Nc2c(C(=O)Nc3ccccc3OC)oc3ccccc23)cc1OCC	inactive: 91%
Cc1cc(C)cc(OCCSc2nc3ccc(NC(=O)c4cccs4)cc3s2)c1	inactive: 75%
CC(C)c1nc(NCCO)c2nnn(Cc3ccccc3)c2n1	inactive: 106%

Compound	survival
COC(=O)C1=CNC=C(C(=O)OC)C1c1ccc(Cl)cc1	inactive: 112%
O=C(Cn1cc(C(=O)C2CCCCC2)c2ccccc21)Nc1ccccc1Cl	inactive: 76%
CCOc1ccc(NC(=O)CSC2=Nc3ccccc3C3=NC(CC(=O)NCc4cccs4)C(=O)N23)cc1 (stereo not drawn)	inactive: 81%
COc1cc(-c2cc(OC)c3c(C)oc(C)c3c(=O)c2)ccc1OC(=O)c1ccc(C)cc1	inactive: 65%
COCC(=O)N1CCC(n2nnc3cc(F)ccc32)CC1	inactive: 95%
COc1ccc2c(C)c(CC(=O)NCCc3ccc(Cl)cc3)c(=O)oc2c1C	inactive: 117%
O=C(CSc1n[nH]c(-c2ccccc2Cl)n1)NCCCc1ccccc1	inactive: 67%
Cc1nc(N(C)C2CCCCC2)c2nnn(Cc3ccc(F)cc3)c2n1	inactive: 103%
CC1=C(c2ccc(C)c(C)c2)S(=O)(=O)N=C1N1CCC(C(=O)NC(C)c2ccccc2)CC1 (stereo not drawn)	inactive: 71%
CCCN(CCC)C(=O)c1cc2c(=O)n3cccc(C)c3nc2s1	inactive: 80%
CC(CCc1ccccc1)NC(=O)Cn1c(=O)nc(-c2ccccc2)c2cc(Cl)ccc21 (stereo not drawn)	inactive: 71%
CCc1ccc2oc(C(=O)N(Cc3ccc(N(C)C)cc3)Cc3ccco3)c(C)c2c1	inactive: 88%
Cc1cc(=O)c2cc(Br)ccc2[nH]1	inactive: 106%
Cc1ccc(-c2cn3c(n2)sc2cc(C(=O)NCCCN4CCCCCC4)ccc23)cc1	active: -1%
COCCNc1c(-c2ccc(OC)c(OC)c2)nc2ccc(Cl)cn12	inactive: 109%
O=C1c2ccccc2-c2onc3c(N4CCN(C5CCCCC5)CC4)cc(NCCO)c1c23	inactive: 81%
CC(=O)c1cccc(NC(=O)C2CCN(c3ncnc4c3nc3n4CCCCC3)CC2)c1	inactive: 66%
O=C(O)c1cc2cc3ccccc3nc2s1	inactive: 112%
Cc1ccc(CCNC(=O)C2COc3ccccc3C2)cc1 (stereo not drawn)	inactive: 88%
Cc1ccc(S(=O)(=O)c2cn(C)c3cc(N4CCOCC4)c(F)cc3c2=O)c(C)c1	inactive: 84%
COc1ccc(N2CCN(c3ncnc4c3nc3n4CCCCC3)CC2)cc1	inactive: 73%
Oc1c(C(c2ccc(F)cc2)N2CCCC2)sc2nc(-c3ccco3)nn12 (stereo not drawn)	inactive: 84%

Compound	survival
Cc1ccc(Cl)cc1-n1c(=O)c2sc3ccccc3c2n(CC(=O)NC2CCCC2)c1=O	inactive: 31%
Cc1ccc2c(c1)-c1onc(C(=O)N3CCN(c4cc(C)ccc4C)CC3)c1CO2	inactive: 86%
COc1ccccc1CNS(=O)(=O)c1c(C(=O)N2CCC(C)CC2)c(C)n(C)c1C	inactive: 73%
Cc1ccc(CCNC(=O)Cn2ncc3c([nH]c4ccccc43)c2=O)cc1	inactive: 66%
COC(=O)C1C(=O)/C(=C/N(C)C)C(=O)CC1(C)C (stereo not drawn)	inactive: 91%
N#Cc1cccc(NC(=O)Nc2cccn(Cc3ccccc3)c2=O)c1	inactive: 110%
Cc1cc(C)n(-c2nc3cc(Cl)ccc3nc2N2CCN(c3cccc(C)c3C)CC2)n1	active: -1%
COc1ccc(C)cc1NC(=O)CSc1nc(=O)n(Cc2cccnc2)c2c1CCC2	inactive: 113%
CCCCCN1C(C(=O)c2ccccc2)=C(NC(=O)c2ccc(OC)c(OC)c2)c2ccccc2S1(=O)=O	inactive: 88%
O=C(CCn1c(=O)c2cccn2c2ccc(F)cc21)NCCc1ccc(Cl)cc1	inactive: 78%
COc1ccc(NC(=O)N2CCC(CN3CCCC3)CC2)c(OC)c1	inactive: 64%
O=C(C1CCCN(S(=O)(=O)c2cccc3nonc23)C1)N1CCN(c2ccccc2F)CC1 (stereo not drawn)	inactive: 78%
Clc1ccc(-c2ccc(CNCCSc3nnnn3-c3ccccc3)o2)cc1	inactive: 40%
COC(=O)c1ccccc1NC(=O)CSc1cc(-c2ccccc2)nc(C)n1	inactive: 92%
CC(=O)c1ccc(N2C(=O)N(Cc3ccc(F)cc3)c3ccccc3S2(=O)=O)cc1	inactive: 83%
CCN1CCN(c2oc(-c3ccc(COc4ccc(OC)cc4)o3)nc2C#N)CC1	inactive: 75%
CC(C)(C)OC(=O)N1CCC(c2c(C(=O)NCCN3CCOCC3)cnn2-c2cccc(F)c2)CC1	inactive: 120%
COc1ccc(C2(CNC(=O)C(=O)Nc3ccc(C)c(Cl)c3)CCCC2)cc1OC	inactive: 83%
CCN(CC)S(=O)(=O)c1nnc(NC(=O)COc2ccccc2)s1	inactive: 97%
O=C(c1cccs1)N1CCN(C(=O)c2cccs2)CC1	inactive: 107%
O=C(NCc1cccnc1)C(C(=O)c1ccc(F)cc1)n1ccccc1=O (stereo not drawn)	inactive: 116%
O=C(NC1CCCC1)C(c1ccccn1)N(C(=O)c1ccc2c(c1)OCCO2)c1ccccc1 (stereo not drawn)	inactive: 101%
